According to PubChem BioAssay AID1460 (National Center for Advancing Translational Sciences (NCATS), 2008):
“And” between values parts separate entries of the source, which are not always exact repeats. Identical values can stand only once. Among all 270,000 compounds or so, about 5,800 (2.1%) were called active. Inconclusive results, whose numbers are uncertain, are shown with a selection of clear calls. Calls follow the shape of the dose curve; as a rule, active = well fitted inhibition curve with a large enough effect; inconclusive = small, poorly fitted or top-dose-only effect; inactive = flat fitted curve, though single readings scatter. Potencies of inconclusive entries are doubtful fits and often do not repeat.

These compounds were tested against Microtubule-associated protein tau (Homo sapiens) (UniProt P10636) (assay: qHTS for Inhibitors of Tau Fibril Formation, Thioflavin T Binding). Conditions: recombinant tau K18 P301L (four-repeat tau fragment), heparin-induced fibrillization, ThT fluorescence; series mostly up to 57.4 µM.
Sequence of UniProt P10636 (P10636 whole entry, looked up, the tested form may be a part): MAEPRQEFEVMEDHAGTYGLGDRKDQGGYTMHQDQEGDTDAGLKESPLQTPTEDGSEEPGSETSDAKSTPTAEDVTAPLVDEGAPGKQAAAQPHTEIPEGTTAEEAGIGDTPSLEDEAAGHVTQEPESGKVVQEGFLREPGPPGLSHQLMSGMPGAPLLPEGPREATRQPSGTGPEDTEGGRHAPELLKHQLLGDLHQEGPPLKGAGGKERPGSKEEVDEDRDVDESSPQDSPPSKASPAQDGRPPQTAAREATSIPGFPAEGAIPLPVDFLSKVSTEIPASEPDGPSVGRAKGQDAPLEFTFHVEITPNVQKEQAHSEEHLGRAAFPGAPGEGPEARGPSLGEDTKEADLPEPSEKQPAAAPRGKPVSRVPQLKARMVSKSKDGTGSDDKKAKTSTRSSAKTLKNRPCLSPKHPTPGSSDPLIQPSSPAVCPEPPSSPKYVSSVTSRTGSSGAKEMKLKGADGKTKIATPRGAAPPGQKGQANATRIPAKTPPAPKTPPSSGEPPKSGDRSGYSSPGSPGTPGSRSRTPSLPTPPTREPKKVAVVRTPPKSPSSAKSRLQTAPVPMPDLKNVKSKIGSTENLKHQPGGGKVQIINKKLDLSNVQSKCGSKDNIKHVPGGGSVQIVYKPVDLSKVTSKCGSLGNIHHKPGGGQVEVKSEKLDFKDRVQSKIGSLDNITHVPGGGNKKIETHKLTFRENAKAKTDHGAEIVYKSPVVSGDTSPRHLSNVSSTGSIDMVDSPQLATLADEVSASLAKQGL
Method in brief: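 Heparin-induced fibrillization of the P301L-mutant K18 repeat-domain fragment of human tau was followed by ThT binding in quantitative high-throughput format.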
% is scaled to controls: 0 for no effect and ±100 for the full control effect; potency is read from the fitted curve at half-maximal effect; tags tell the direction and shape of the fitted curve.
Also: nearly all actives have a fitted effect of over 55% in size.

Structure (SMILES) | Potency | activity, negative = inhibition
CC(=O)c1ccc(NC(=O)Cn2nc(C(F)(F)F)c3c2CCC3)cc1 | inconclusive: 7.94 µM [inhibitor, partial curve, poor fit] | –
CC1=CC2=NC(=O)/C(=C/c3coc4ccc(Cl)cc4c3=O)C(=N)N2O1 | inconclusive: 31.6 µM [inhibitor, partial curve] | –
Oc1ccc(-c2nc(-c3ccc(F)cc3)c(-c3ccncc3)[nH]2)cc1 | inconclusive: 44.7 µM [inhibitor, single point] and inconclusive: 15.8 µM [inhibitor, partial curve] | –
Cc1onc(-c2ccccc2)c1C(=O)Nc1nnc(COc2ccc(Cl)cc2)s1 | inconclusive: 25.1 µM [inhibitor, single point] | –
O=C(CSc1ccsc1[N+](=O)[O-])N1CCN(c2ccc(Cl)cc2)CC1 | inconclusive: 10 µM [inhibitor, partial curve] | –
O=C(NCC1CCCCC1)c1cc([N+](=O)[O-])ccc1N1CCOCC1 | inactive | –
O=C(CCS(=O)(=O)Cc1ccccc1)N1CCN(c2ccc([N+](=O)[O-])cc2)CC1 | inconclusive: 15.8 µM [inhibitor, partial curve] | –
CCc1ccccc1NC(=O)CCNS(=O)(=O)c1ccc2c(c1)CCCC(=O)N2 | inactive | –
CCCCCCOc1ccc(/C=C/C(=O)Nc2sc3c(c2C(=O)OC)CCC3)cc1OC | inconclusive: 15.8 µM [inhibitor, partial curve] | –
O=C1CCCc2cc(S(=O)(=O)NCC3CCC(C(=O)Nc4ccc(Cl)cc4)CC3)ccc2N1 (stereo unspecified) | inactive | –
Cc1cc(Nc2ccc(Br)cc2)n2nc(-c3ccccc3C)nc2n1 | inconclusive: 25.1 µM [inhibitor, partial curve, poor fit] | –
CC1=C(C(=O)Nc2ccc(C)cc2C)C(c2ccccc2)n2nc(SCC(=O)c3ccc(C)cc3)nc2N1 (stereo unspecified) | inconclusive: 39.8 µM [activator, single point] | –
CCc1ccc(C(=O)Nc2cccnc2Oc2ccc(Cl)cc2)cc1 | inconclusive: 44.7 µM [inhibitor, single point] | –
CCc1ccc2c(c1)/C(=N/N(C)C(=S)NC)C(=O)N2 | active: 31.6 µM | –
COc1ccc(OC)c(-c2cc(C(=O)Nc3ccc(C)c(C)c3)no2)c1 | inactive | –
Cc1c(Cl)cccc1NC(=O)Nc1ccc(C(=O)N2CCCC2)cc1 | inconclusive: 11.2 µM [inhibitor, partial curve] | –
COc1cc(/C=N/N(C)c2ccccc2)cc(Cl)c1O | inconclusive: 14.1 µM [inhibitor, partial curve] | –
NCCC(=O)N[C@H](Cc1cnc[nH]1)C(=O)O | inactive | –
Cc1ccc(C(=O)NC(=C(Cl)Cl)S(=O)(=O)c2ccc(C)cc2)cc1 | inactive | –
O=C(CSc1nnnn1-c1ccc(F)cc1)NC1CCCCC1 | inactive | –
Cc1cc(C)cc(Nc2cc(=O)n(C3CCCCC3)c(=O)[nH]2)c1 | inactive | –
Cc1[nH]c2ccccc2c1N=Nc1cccc(C(=O)O)c1 | active: 7.94 µM | –

Structure (SMILES) | Potency | activity, negative = inhibition
CC(C)(C)c1ccc(CSC2=Nc3ccccc3C3=NC(CC(=O)NCc4cccs4)C(=O)N23)cc1 (stereo unspecified) | inconclusive: 39.8 µM [inhibitor, single point] | –
COC(=O)C1=C(C(=O)OC)[C@@H]2N(Cc3ccccc3)c3ccccc3[C@@]23C[C@@H](C(=O)OC)N(S(=O)(=O)c2ccc(OC)cc2)C3=N1 | – | inactive: -2.11% [at 11.5 µM]
CC1(OC(=O)c2ccc(Cl)nc2)C(=O)C=C2C=C(c3ccsc3)OC=C2C1=O (stereo unspecified) | inconclusive: 1.78 µM [inhibitor, full curve] | –
N#C/C(=C/c1ccc(-c2ccc(S(N)(=O)=O)cc2)o1)C(=O)Nc1ccccc1 | inconclusive: 2 µM [inhibitor, full curve] | –
CCC1CSC(Nc2ccc(C(=O)/C=C/c3ccc(Oc4ccccc4)cc3)cc2)=N1 (stereo unspecified) | inconclusive: 11.2 µM [inhibitor, partial curve] | –
Cc1ccc(NC(=S)N=Nc2c(O)n(C)c3ccc(S(=O)(=O)N4CCOCC4)cc23)cc1C | inconclusive: 0.631 µM [inhibitor, single point] | –
COc1cccc(/C=N/NC(=O)c2oc3nc(-c4ccccc4)cc(-c4ccco4)c3c2N)c1 | inconclusive: 3.16 µM [inhibitor, full curve] | –
Cc1nn(C)c2c1c(C(F)(F)F)cc(=O)n2CC(=O)NCc1ccc(OC(C)C)cc1 | inactive | –
Cc1c(O)nc(SCC(=O)Nc2ccc(Cl)cc2Cl)n(-c2ccc(F)cc2)c1=O | inactive | –
O=C1c2ccccc2C(=O)N1CCCCN(C(=O)c1cc([N+](=O)[O-])cc([N+](=O)[O-])c1)c1ccc(Cl)cc1 | inactive | –
O=C(N/N=C/c1cc(Cl)cc([N+](=O)[O-])c1O)NC12CC3CC(CC(C3)C1)C2 | active: 12.6 µM | –
COc1ccc(-c2nc3c(c(SCC(=O)Nc4cccc(O)c4)n2)Cc2c(CO)cnc(C)c2O3)cc1 | inconclusive: 14.1 µM [inhibitor, partial curve] | –
CC1CCc2onc(C(=O)N3CCN(c4ccccc4)CC3)c2C1 (stereo unspecified) | inconclusive: 12.6 µM [inhibitor, partial curve] | –
Clc1ccsc1-c1ccnc(-n2cccc2)n1 | inconclusive: 28.2 µM [inhibitor, single point] | –
CC1=C(CO)C(=O)OC([C@@H](C)C2CC[C@H]3C4C[C@H]5O[C@]56[C@@H](O)C=CC(=O)[C@]6(C)C4CC[C@]23C)C1 (stereo partly specified) | inconclusive: 39.8 µM [inhibitor, single point] | –
COc1cc(C2C(C#N)=C(N)Oc3n[nH]c(-c4cccnc4)c32)cc(Br)c1O (stereo unspecified) | inconclusive: 14.1 µM [inhibitor, partial curve] | –
COc1ccc(CCNC(=O)Cc2c(C)c3cc4c(C(C)(C)C)coc4c(C)c3oc2=O)cc1OC | inactive | –
COC(=O)COc1ccc(C2C(C(=O)OC)=C(C)NC3=C2C(=O)c2ccccc23)cc1OC (stereo unspecified) | active: 14.1 µM | –
CN(C(=S)Nc1ccc(SC(F)F)cc1)c1ccc(O)cc1 | active: 2.51 µM | –
COC(=O)c1cc(NC(=O)CCc2c(C)nc3c(c(C)nn3C(C)(C)C)c2C)cc(C(=O)OC)c1 | inactive | –
CCSc1nnc(NC(=O)c2ccc3ccccc3n2)s1 | inconclusive: 5.01 µM [inhibitor, partial curve] | –
CCN1CCN(Cc2ccc(NC(=O)c3cc(NC(=O)c4cncc(-c5ccc(C#N)cc5)c4)cc(OC)c3)cc2C(F)(F)F)CC1 | inactive | –

Structure (SMILES) | Potency | activity, negative = inhibition
Cc1ccc(C)c(CSc2nnc(-c3ccccn3)n2N)c1 | inactive | –
COC(=O)CC1=C(C(=O)OC)[C@@H](c2ccccc2[N+](=O)[O-])C(C#N)=C(N)O1 | inconclusive: 39.8 µM [inhibitor, single point] | –
CC(C)c1ccc(C2Sc3ccccc3NC3=C2C(=O)c2ccccc23)cc1 (stereo unspecified) | inconclusive: 1.78 µM [inhibitor, full curve] | –
CSCCCNC(=O)c1ccc(OC2CCN(C(=O)c3cccnc3)CC2)cc1 | inactive | –
CC(/C=C/C=C/c1ccccc1)=N\NC(=O)c1cccnc1 | inconclusive: 12.6 µM [inhibitor, partial curve] | –
CC(CCc1ccco1)NC(=O)CSc1cc(=O)n(C)c2ccccc12 (stereo unspecified) | inconclusive: 11.2 µM [inhibitor, partial curve, poor fit] | –
CCC(=O)N1CCN(c2cc(NCC3CCCO3)c(F)cc2[N+](=O)[O-])CC1 (stereo unspecified) | inconclusive: 10 µM [inhibitor, partial curve] | –
CC(C)(C)c1nn2cnnc2n(/N=C/c2cccc3ccccc23)c1=O | inactive | –
CCc1nnc2c(N3CCN(c4cccc(C)c4)C(C)C3)nc3ccccc3n12 (stereo unspecified) | inconclusive: 17.8 µM [inhibitor, partial curve] | –
CCN(CC)CCN(C(=O)c1ccc(N2C(=O)CCC2=O)cc1)c1nc2cc3c(cc2s1)OCO3 | inconclusive: 31.6 µM [inhibitor, single point] | –
COC(=O)CCCCCCCCC(=O)Nc1nc2ccccc2s1 | inconclusive: 0.355 µM [inhibitor, full curve, poor fit] | –
Cc1cccc(S(=O)(=O)Nc2cccc(-c3ccc(N4CCCCC4)nn3)c2)c1 | inactive | –
C=C(C(=O)c1ccccc1)C(C(=C)C(=O)c1ccccc1)c1ccc(OC)cc1 | inconclusive: 28.2 µM [inhibitor, partial curve] | –
O=C(Nc1cccc(C(F)(F)F)c1)c1cc2c(s1)-c1ccccc1OC2 | inconclusive: 2.82 µM [inhibitor, full curve] | –
COc1ccc(CNC(=O)c2cnc3sc(N4CCC(C)CC4)nn3c2=O)c(OC)c1 | inactive | –
COc1ccc(/C=C/C(=O)OCC(=O)N2CC(=O)Nc3ccccc32)cc1S(=O)(=O)N1CCOCC1 | inactive | –
COc1ccc(/C=N/NC(=O)c2cccc([N+](=O)[O-])c2)cc1OC(=O)c1ccccc1 | inactive | –
O=C(NCCc1c[nH]c2ccccc12)c1ccc(S(=O)(=O)NCc2ccco2)cc1 | inconclusive: 15.8 µM [inhibitor, partial curve] | –
COc1cc2[nH]c(=O)n(C3CCCCC3)c(=O)c2cc1OC | inactive | –
COc1ccc(C)cc1-n1nnnc1SCc1nc2ccccc2s1 | inconclusive: 28.2 µM [inhibitor, single point] | –
CC1=NN(c2cccc(Cl)c2)C(=O)C12CC(C)=C(C)CS2 (stereo unspecified) | inconclusive: 17.8 µM [inhibitor, partial curve] | –
CCc1ccc(NC(=O)C2CCN(c3nn4cc(-c5ccc(OC)cc5)nc4s3)CC2)cc1 | inconclusive: 2.82 µM [inhibitor, partial curve] | –
